# Experimental data reported in PMC6919601, “Identification of Plasmodium dipeptidyl aminopeptidase allosteric inhibitors by high throughput screening” (PLoS ONE, 2019).
# Where “and” joins values, the source holds several entries; their conditions need not be identical. Equal values may be shown once. About 230 (0.21%) of roughly 110,000 compounds showed an effect of 50% or more. This is one part of the list.
# Biological target: DPAP1 (Plasmodium falciparum, UniProt Q8IIJ9)
# Experiment: primary screen, percent inhibition; read by cleavage of a fluorogenic dipeptide substrate; higher = more effect of the substance
# Parameters: species or system P. falciparum D10 trophozoite lysates; single well
# Method: HTS was performed in black 384-well plates. The first and last two columns of each plate contained our negative (DMSO) and positive (10 μM JCP410) controls, and the 20 central columns the test compounds at 10 μM. Compounds were first diluted 50-fold into assay buffer (50 mM sodium acetate, 5 mM MgCl2, 10 mM β-mercaptoethanol, and 0.1% CHAPS, pH 5.5) from a 10 mM DMSO stock plates. One microliter of this 200 μM intermediate stock plate was dispensed into the assay plate. […] After 30 min, the reaction was quenched with 20 μL of 0.5 M acetic acid, and the fluorescent intensity measured at 523 nm (λex = 492 nm) using an Analyst HT multimode plate reader (Molecular Devices).
# 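Also: 30 min substrate incubation versus DMSO and 10 µM JCP410 controls.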
# Chain of DPAP1 (Q8IIJ9 whole entry, looked up): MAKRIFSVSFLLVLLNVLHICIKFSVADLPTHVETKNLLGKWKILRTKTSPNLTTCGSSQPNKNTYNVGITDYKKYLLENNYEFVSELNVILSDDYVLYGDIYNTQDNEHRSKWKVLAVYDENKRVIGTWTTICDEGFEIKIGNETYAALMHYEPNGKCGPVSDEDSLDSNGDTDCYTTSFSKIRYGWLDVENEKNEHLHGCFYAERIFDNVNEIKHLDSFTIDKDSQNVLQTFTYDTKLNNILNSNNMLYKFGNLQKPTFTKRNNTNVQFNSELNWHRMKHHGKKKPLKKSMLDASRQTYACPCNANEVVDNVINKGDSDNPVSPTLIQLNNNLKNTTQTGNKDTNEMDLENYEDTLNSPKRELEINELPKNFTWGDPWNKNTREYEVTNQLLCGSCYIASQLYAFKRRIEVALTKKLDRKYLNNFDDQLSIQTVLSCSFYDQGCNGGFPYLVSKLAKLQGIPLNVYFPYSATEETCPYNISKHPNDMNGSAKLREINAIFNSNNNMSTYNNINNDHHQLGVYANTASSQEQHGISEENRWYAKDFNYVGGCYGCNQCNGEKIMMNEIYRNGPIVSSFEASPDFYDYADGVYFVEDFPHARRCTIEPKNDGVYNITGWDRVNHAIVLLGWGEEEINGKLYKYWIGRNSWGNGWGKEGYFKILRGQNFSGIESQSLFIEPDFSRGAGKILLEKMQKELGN
row,SMILES,% Inhibition @ 10 uM
1,Cc1ccc2nc3c(cc(C#N)c(=O)n3Cc3cccnc3)c(=O)n2c1,-5.92%
2,CCN(CC)CCCCOc1ccccc1[N+](=O)[O-],-3.42%
3,CNC(=O)c1c(NC(=O)c2cccs2)sc2c1CCCC2,24.4%
4,C=C(C)[C@@H]1CC=C(CN2CCN(c3ccc(F)cc3)CC2)CC1,6.06%
5,CC(=O)c1cccc(NC(=O)CN2C(=O)c3cccc4cccc2c34)c1,-4.16%
6,CCN(CC)CCCOc1ccc(Cl)cc1,-2.54%
7,COc1ccc(CN2CC(C)CC(C)C2)c(C)c1C (stereo not shown),4.75%
8,Cn1nc(-c2ccc(Cl)cc2)c2cc(C(=O)NCC3CCCO3)sc21 (stereo not shown),2.14%
9,N=C1/C(=C\c2ccc(Sc3ccc(Cl)cc3)o2)C(=O)N=C2SC(N3CCOCC3)=NN12,0.0579%
10,Cc1cc(C)c(NS(=O)(=O)c2ccc(NC(=O)c3ccco3)cc2)c(C)c1,0.658%
11,CCCCNC(=O)c1onc(C)c1Cl,-0.22%
12,CC12C(=O)N(c3ccccc3)C(=O)C1C1C=CC2C1 (stereo not shown),1.34%
13,O=C(COc1ccc(S(=O)(=O)NCc2ccccc2)cc1Cl)N1CCCC1,-5.35%
14,CCc1cc2c(N3CCCCC3)ncnc2s1,-2.42%
15,N#CCNC(=O)[C@H](CC1CCCCC1)OC(=O)N1CCOCC1,-3.69%
16,Cc1c2cnn(CC(=O)N3CCC(C(N)=O)CC3)c(=O)c2c(C)n1Cc1ccccc1,-0.447%
17,CCCn1c(C(O)c2ccc(OC)cc2)nc2ccccc21 (stereo not shown),-3.14%
18,O=C1NC(=O)/C(=C\c2ccc(C(F)(F)F)cc2)N1,1.52%
19,CCOC(=O)c1c(NC(=O)Nc2ccccc2)sc2c1CCCC2,4.93%
20,CC1CC(C)CN(C(=O)/C(=C/c2ccco2)NC(=O)c2ccccc2)C1 (stereo not shown),-2.8%
21,O=C(Cn1cnc2c(nnn2-c2ccc(F)cc2)c1=O)NCc1ccccc1Cl,1.24%
22,N#C/C(=C\c1c(Oc2ccc(F)cc2)nc2ccccn2c1=O)C(=O)NC1CCS(=O)(=O)C1 (stereo not shown),2.16%
23,COc1cc(/C=C2\NC(=O)N(Cc3ccc(Cl)cc3)C2=O)cc(OC)c1O,2.17%
24,O=c1oc(-c2cccs2)cc(-c2ccccc2)c1-c1ccccc1,-0.357%
25,CC(=O)Nc1ccc(C(=O)Nc2cccc(NC(=O)c3ccco3)c2)cc1,4.11%

row,SMILES,% Inhibition @ 10 uM
1,Cn1nnnc1SCCCNCc1ccc(-c2ccc(Cl)cc2)o1,0.596%
2,CC1=C(C(=O)Nc2ccc(F)cc2F)C(c2cccnc2)C2=C(O)CC(c3ccccc3)CC2=N1 (stereo not shown),-0.0959%
3,O=C(COc1ccccc1Cl)N[C@H]1CCCC[C@@H]1NC(=O)COc1ccccc1Cl,2.39%
4,Cc1ccsc1C1C(C#N)=C(N)OC2=C1C(=O)CC(C)(C)C2 (stereo not shown),-3.46%
5,COc1ccc2c(c1)C(=NNC(N)=S)c1cc(OC)ccc1-2,2.92%
6,CCN(CC)C(=O)C1CCCN(Cc2ccccc2Cl)C1 (stereo not shown),-1.77%
7,CN(C(=O)C1CCN(c2ncnc3c2nc2n3CCCCC2)CC1)C1CCCCC1,6.14%
8,O=c1oc2cc(OCCc3ccccc3)ccc2c2c1CCC2,-1.6%
9,O=C1/C(=C/c2cn(Cc3ccccc3Cl)c3ccccc23)Sc2ccccc21,-5.28%
10,Fc1cc(F)c(F)c(-n2ncc3c2ncn2nc(COc4ccc(Cl)cc4)nc32)c1F,-1.11%
11,C(=C\c1ccccc1)/CNCCSc1nnnn1-c1ccccc1,-3.08%
12,CC(=O)c1ccc(NC(=O)c2sc3nc4ccccc4cc3c2N)cc1,16.3%
13,Cc1ccc(C2C(C(=O)c3ccccc3)=C(N)OC3=C2C(=O)CCC3)cc1 (stereo not shown),-2.87%
14,COC(=O)C1=C(C)N=c2s/c(=C\c3ccccc3F)c(=O)n2C1/C=C/c1ccccc1 (stereo not shown),1.88%
15,COc1ccccc1N1CCN(Cc2cc(Br)cs2)CC1,3.8%
16,CC1CN(c2oc(/C=C/c3ccc(F)cc3)nc2C#N)CC(C)O1 (stereo not shown),-0.808%
17,CCc1nnc(C(=O)[C@H](CC)NC(=O)[C@H](CC2CCCCC2)OC(=O)N2CCOCC2)o1,-1.82%
18,CCOc1ccc(-c2nonc2NC(=O)Cc2ccc(OC)cc2)cc1,5.39%
19,CNC(=O)/C(C#N)=C/c1c(Oc2ccc(C)cc2)nc2c(C)cccn2c1=O,-1.65%
20,O=C(O)Cc1nnc(-c2ccc3c(c2)OCO3)o1,-2.41%
21,CCc1cccc(CC)c1NC(=O)CSc1nc(N)cc(N)n1,-2.88% and -0.519%
22,O=C1OC(c2ccccc2)c2ccccc21 (stereo not shown),-2.18%
23,CN(C1=NC(=O)/C(=C2\C(=O)Nc3ccccc32)S1)c1ccc(O)cc1,10.5%
24,CCOC(=O)c1ccc(CN2C(=O)c3ccccc3C2(O)c2ccc(Cl)cc2)o1 (stereo not shown),2.72%
25,Cc1sc(NC(=O)COc2ccc(Cl)cc2Cl)c(C#N)c1C,1.25%

row,SMILES,% Inhibition @ 10 uM
1,COc1ccc(NCC(=O)Nc2ccc(Cl)cc2C)c(OC)c1,-0.564%
2,CCOC(=O)N[C@@H](C)Cc1ccccc1,0.968%
3,CCOc1ccc(NC(=O)/C(=C/c2ccc(C)o2)NC(=O)c2ccccc2)cc1,2.7%
4,COc1ccc(NC(=O)c2sc3ccccc3c2Cl)c(OC)c1,-9.49%
5,CCn1c(SCc2ccccc2)nc2ccccc2c1=O,4.59%
6,O=C(COc1ccc(N2C(=O)C3C4CCC(C4)C3C2=O)cc1)c1ccccc1 (stereo not shown),-4.68%
7,CN1CCN(c2ncnc3c2cnn3Cc2ccccc2)CC1,-8.67%
8,CN(c1ccc(C(=O)Nc2ccc(F)cc2)cc1)S(C)(=O)=O,-1.51%
9,COc1ccccc1NC(=O)Nc1ccccc1,5.77%
10,CCOC(=O)C(C(=O)NCc1ccccc1)C1CCCCC1 (stereo not shown),4.15%
11,COc1ccc2nc(-c3ccccc3)n(C)c2c1OC,-4.32%
12,Cc1ccc2c(c1)-c1onc(C(=O)NCCN(C)C)c1CO2,-4.37%
13,CCN1CCN(c2cc3c(nn2)Oc2ccccc2N3C)CC1,3.47%
14,O=C(CSc1nnnn1-c1ccccc1)c1ccc(Br)cc1,-1.84%
15,CCCCN(C(=O)Cn1ncc2c1-c1cc(C)ccc1OC2)C1CCN(C(C)=O)CC1,-1.69%
16,CCCCc1c(O)n2c(nc1=O)sc1cc(OC)ccc12,-4.67%
17,O=C(CCN1CCOCC1)Nc1ccc2c(c1)N(C(=O)CN1CCOCC1)c1ccccc1CC2,2.86%
18,O=C(c1cccs1)N1N=C(c2ccccc2)CC1c1ccccc1 (stereo not shown),5.19%
19,CCN(CC)CCNC(=O)CCS(=O)(=O)Cc1ccc(C)cc1,-1.21%
20,COc1ccc(CN2CCN(Cc3ccc(OC)c(OC)c3)CC2)c(OC)c1,-5.26%
21,Cn1c(=O)c2sccc2n2c(CCC(=O)NC3CCCC3)nnc12,3.61%
22,COc1nc2c([nH]1)OC(N)=C(C#N)C2c1ccccc1C(C)(C)C (stereo not shown),2.76%
23,CC(C)Cn1c(=O)c2ccccc2n2c(CCC(=O)NCc3cccnc3)nnc12,-4.21%
24,Cc1ccc(Cl)cc1NC(=O)c1ccc(N(Cc2ccccc2)S(C)(=O)=O)cc1,0.87%
25,CN1CC2(C)CN(C)CC(C)(C1)C2O (stereo not shown),-2.36%

row,SMILES,% Inhibition @ 10 uM
1,Cc1ccc(Cn2c(C)c3cnn(CC(=O)NCCc4ccccc4)c(=O)c3c2C)cc1,1.22%
2,CCC(=O)Nc1nonc1-c1nc2ccccc2n1CC(C)C,-2.74%
3,O=C(O)C1CCCN1S(=O)(=O)c1ccc([N+](=O)[O-])cc1 (stereo not shown),4.63%
4,O=C(Nc1ccccc1C(=O)O)c1cccc(S(=O)(=O)NCc2ccccc2)c1,4.8%
5,c1ccc(Cn2nnc3c(NCc4ccc5c(c4)OCO5)ncnc32)cc1,2.57%
6,CNC(=O)/C(=C\c1ccc2c(c1)OCO2)NC(=O)c1ccc(Br)cc1,2.38%
7,CC1CCc2c(sc(N)c2C(=O)Nc2ccccc2)C1 (stereo not shown),19.2%
8,COc1ccc(C(=O)O)cc1OCc1ccc2ccccc2n1,-9.29%
9,CC1CCCCN1C(=O)c1cc(-c2ccccc2)nc2ccccc12 (stereo not shown),-5.92%
10,CCOC(=O)c1cc(-c2ccc(OC)c(S(=O)(=O)Nc3ncccc3C)c2)on1,-0.127%
11,CO/C(O)=C1\C(C)=NC(=S)NC1c1cc(OC)c(OC)cc1OC (stereo not shown),-4.32%
12,COc1ccc(CN2CCc3ccccc3C2)c(OC)c1C,-5.41%
13,CC(C)c1c(C#N)c(N)nc(SCC(=O)c2ccc(-c3ccccc3)cc2)c1C#N,-0.736%
14,Cc1ccc2oc(=O)c3cnn(CC(=O)NCCN(C)Cc4ccccc4)c3c2c1,-3.45%
15,CN1CCCN(C(=O)/C(=C/c2ccco2)NC(=O)c2ccccc2)CC1,-2.8%
16,CCOCCCNC(=O)N(Cc1ccc(OC)cc1)C1CCN(C(C)=O)CC1,2.72%
17,OCCN(CCO)Cn1c(=S)oc2ccccc21,11.6%
18,Cc1cccc(N(CC(=O)Nc2cccc(N(C)S(C)(=O)=O)c2)S(=O)(=O)c2ccccc2)c1,1.88%
19,OC1(c2ccc(Cl)cc2)CSC2=NCCN21 (stereo not shown),2.06%
20,CN1CCN(C(=O)/C(=C/c2ccc(F)cc2)NC(=O)c2ccccc2)CC1,5.31%
21,O=S(=O)(c1ccc(F)cc1)N1CCSC1c1ccc(OCc2ccccc2)cc1 (stereo not shown),1.63%
22,CN1CCN(c2ccncc2S(=O)(=O)N2CCCCC2)CC1,-5.21%
23,Cc1ccc(C)c(NC(=O)c2c(Cl)cnn2C)c1,-1.08%
24,COc1ccc2cc(Br)ccc2c1CC(=O)Nc1ccccc1F,2.64%
25,CC(C)OCCCNC(=O)C(=O)NCCc1c[nH]c2ccccc12,-0.0735%
